At least one structure is not confirmed: it was looked up by name or label, or the drawing left a doubt.
Test system: trypsin
Assay: Inhibitory activity for trypsin
Format: biochemical

**Q.** With `CCn1c(CC[C@@H]2CCCN2C(=O)Cc2ccccc2C(=O)O)cc2ccc(C(=N)N)cc21` [Compound 24, 2-[2-[(S)-2-[2-(6-amidino-1-ethylindol-2-yl)ethyl]pyrrolidinyl]-2-oxoethyl]benzoic acid] as the molecule, how does the IC50 read?
**A.** The IC50 was 706 nM.

**Q.** How did the IC50 turn out when `CCn1c(CC[C@@H]2CCCN2C(=O)CC2CCCC2)cc2ccc(C(=N)N)cc21` [Compound 43, 1ethyl-2-[2-[(S)-1-(2-cyclopentylacetyl)pyrrolidin-2-yl]ethyl]indole-6-carboxamidine] was run?
**A.** Its IC50 is 401 nM.

**Q.** `CCOC(=O)CN(CC(=O)N1CCC[C@H]1CCc1cc2ccc(C(=N)N)cc2n1CC)C1CC1` [Compound 62, ethyl 2-[[2-[(S)-2-[2-(6-amidino-1-ethylindol-2-yl)ethyl]pyrrolidinyl]-2-oxoethyl]cyclopropylamino]acetate] was tested. Which IC50 did it give?
**A.** The IC50 was 582 nM.

**Q.** `CCOC(=O)CN(C1CC1)C(C)C(=O)N1CCC[C@H]1CCc1cc2ccc(C(=N)N)cc2n1CC` (stereo partly drawn) [Compound 64, ethyl 2-[[2-[(S)-2-[2-(6-amidino-1-ethylindol-2-yl)ethyl]pyrrolidinyl]-1-methyl-2-oxoethyl]cyclo-propylamino]acetate] was tested. Which IC50 did it give?
**A.** Its IC50 is 349 nM.

**Q.** With `CCOC(=O)CC(NC1CC1)C(=O)N1CCC[C@H]1CCc1cc2ccc(C(=N)N)cc2n1CC` (stereo partly drawn) [Compound 72, ethyl 4-[(S)-2-[2-(6-amidino-1-ethylindol-2-yl)ethyl]pyrrolidinyl]-3-cyclopropylamino-4-oxobutanoate] as the molecule, how does the IC50 read?
**A.** The IC50 was 128 nM.

**Q.** `CCn1c(CC[C@@H]2CCCN2C(=O)C(CC(=O)O)NC2CC2)cc2ccc(C(=N)N)cc21` (stereo partly drawn) [Compound 73, 4-[(S)-2-[2-(6-amidino-1-ethylindol-2-yl)ethyl]pyrrolidinyl]-3-cyclopropylamino-4-oxobutanoic acid] was tested. Which IC50 did it give?
**A.** Its IC50 is 268 nM.

**Q.** `CCOC(=O)CN1CCC[C@@H]1C(=O)N1CCC[C@H]1CCc1cc2ccc(C(=N)N)cc2n1C` [Compound 84, ethyl 2-[(R)-2-[[(S)-2-[2-(6-amidino-1-methylindol-2-yl)ethyl]pyrrolidinyl]carbonyl]pyrrolidinyl]acetate] was tested. Which IC50 did it give?
**A.** Its IC50 is 4490 nM.

**Q.** How did the IC50 turn out when `CCOC(=O)CN1CCC[C@@H]1C(=O)N1CCC[C@H]1CCc1cc2ccc(C(=N)N)cc2n1CC` [Compound 86, ethyl 2-[(R)-2-[[(S)-2-[2-(6-amidino-1-ethylindol-2-yl)ethyl]pyrrolidinyl]carbonyl]pyrrolidinyl]acetate] was run?
**A.** Its IC50 is 674 nM.

**Q.** How did the IC50 turn out when `CCn1c(CC[C@@H]2CCCN2C(=O)[C@H]2CCCN2CC(=O)O)cc2ccc(C(=N)N)cc21` [Compound 88, 2-[(R)-2-[[(S)-2-[2-(6-amidino-1-ethylindol-2-yl)ethyl]pyrrolidinyl]carbonyl]pyrrolidinyl]acetic acid] was run?
**A.** The IC50 was 128 nM.

**Q.** For `CCOC(=O)C(CC)N1CCC[C@@H]1C(=O)N1CCC[C@H]1CCc1cc2ccc(C(=N)N)cc2n1CC` (stereo partly drawn) [Compound 110, ethyl 2-[(R)-2-[[(S)-2-[2-(6-amidino-1-ethylindol-2-yl)ethyl]pyrrolidinyl]carbonyl]pyrrolidinyl]butanoate], which IC50 is on record?
**A.** The IC50 was 1460 nM.

**Q.** With `CCOC(=O)[C@H](C)NC(=O)CN1CCC[C@@H]1C(=O)N1CCC[C@H]1CCc1cc2ccc(C(=N)N)cc2n1CC` [Compound 116, ethyl (s)-2-[2-[(R)-2-[[(S)-2-[2-(6-amidino-1-ethylindol-2-yl)ethyl]pyrrolidinyl]carbonyl]pyrrolidinyl]-acetylamino]propanoate] as the molecule, how does the IC50 read?
**A.** The IC50 was 869 nM.

**Q.** For `CCn1c(CCC2CCCN2C(=O)C2CCCN2C(CCO)C(=O)O)cc2ccc(C(=N)N)cc21` [Compound 118, 2-[(R)-2-[[(S)-2-[2-(6-amidino-1-ethylindol-2-yl)ethyl]pyrrolidinyl]carbonyl]pyrrolidinyl]-4-hydroxy-butanoic acid], which IC50 is on record?
**A.** The IC50 was 178 nM.

**Q.** How did the IC50 turn out when `CCn1c(CC[C@@H]2CCCN2C(=O)[C@H]2CCCN2CCCCC(=O)O)cc2ccc(C(=N)N)cc21` [Compound 129, 5-[(R)-2-[[(S)-2-[2-(6-amidino-1-ethylindol-2-yl)-ethyl]pyrrolidinyl]carbonyl]pyrrolidinyl]pentanoic acid] was run?
**A.** Its IC50 is 139 nM.

**Q.** `CCn1c(CC[C@@H]2CCCN2C(=O)[C@H]2CCCN2CCCCCC(=O)O)cc2ccc(C(=N)N)cc21` [Compound 131, 6-[(R)-2-[[(S)-2-[2-(6-amidino-1-ethylindol-2-yl)-ethyl]pyrrolidinyl]carbonyl]pyrrolidinyl]hexanoic acid] was tested. Which IC50 did it give?
**A.** The IC50 was 137 nM.

**Q.** `CCn1c(CC[C@@H]2CCCN2C(=O)[C@H]2CCCN2C(=O)[C@@H](N)C(C)C)cc2ccc(C(=N)N)cc21` [Compound 145, 1-ethyl-2-[2-[(S)-1-[[(R)-1-((S)-2-amino-3-methylbutanoyl)pyrrolidin-2-yl]carbonyl]pyrrolidin-2-yl]-ethyl]indole-6-carboxamidine] was tested. Which IC50 did it give?
**A.** Its IC50 is 524 nM.

**Q.** Which IC50 does the source give for `CCOC(=O)[C@@H](N)CC(=O)N1CCC[C@@H]1C(=O)N1CCC[C@H]1CCc1cc2ccc(C(=N)N)cc2n1CC` [Compound 159, ethyl 4-[(R)-2-[[(S)-2-[2-(6-amidino-1-ethylindol-2-yl)-ethyl]pyrrolidinyl]carbonyl]pyrrolidinyl]-(S)-2-amino-4-oxobutanoate] here?
**A.** The IC50 was 399 nM.

**Q.** For `CCn1c(CC[C@@H]2CCCN2C(=O)[C@H]2CCCN2C(=O)C[C@H](N)C(=O)O)cc2ccc(C(=N)N)cc21` [Compound 161, 4-[(R)-2-[[(S)-2-[2-(6-amidino-1-ethylindol-2-yl)ethyl]pyrrolidinyl]carbonyl]pyrrolidinyl]-(S)-2-amino-4-oxobutanoic acid], which IC50 is on record?
**A.** Its IC50 is 255 nM.

**Q.** Which IC50 does the source give for `CCn1c(CC[C@@H]2CCCN2C(=O)[C@H]2CCCN2C(=O)C[C@H](NS(C)(=O)=O)C(=O)O)cc2ccc(C(=N)N)cc21` [Compound 163, 4-[(R)-2-[[(S)-2-[2-(6-amidino-1-ethylindol-2-yl)ethyl]pyrrolidinyl]carbonyl]pyrrolidinyl]-(S)-2-[(methanesulfonyl)amino]-4-oxobutanoic acid] here?
**A.** The IC50 was 497 nM.

**Q.** For `CCOC(=O)CC(=O)N1CCC[C@@H]1C(=O)N1CCC[C@H]1CCc1cc2ccc(C(=N)N)cc2n1CC` [Compound 174, ethyl 3-[(R)-2-[[(S)-2-[2-(6-amidino-1-ethylindol-2-yl)ethyl]pyrrolidinyl]carbonyl]pyrrolidinyl]-3-oxopropanoate], which IC50 is on record?
**A.** The IC50 was 416 nM.

**Q.** With `CCOC(=O)CCC(=O)N1CCC[C@@H]1C(=O)N1CCC[C@H]1CCc1cc2ccc(C(=N)N)cc2n1CC` [Compound 176, ethyl 4-[(R)-2-[[(S)-2-[2-(6-amidino-1-ethylindol-2-yl)ethyl]pyrrolidinyl]carbonyl]pyrrolidinyl]-4-oxobutanoate] as the molecule, how does the IC50 read?
**A.** The IC50 was 450 nM.

**Q.** For `CCOC(=O)C1CCCN1CC(=O)N1CCC[C@H]1CCc1cc2ccc(C(=N)N)cc2n1CC` (stereo partly drawn) [Compound 196, ethyl 1-[2-[(S)-2-[2-(6-amidino-1-ethylindol-2-yl)ethyl]pyrrolidinyl]-2-oxoethyl]pyrrolidine-2-carboxylate], which IC50 is on record?
**A.** The IC50 was 536 nM.
